Test results from the supplement of paper PMC8728848.
The other results are listed elsewhere or left out.

Experiments:
Assay in all cases: glycan array binding signal (z-score within array); higher = stronger binding
Settings in all cases: glycan notation: IUPAC condensed, linker removed
[1] = molecular target: Gal(b1-4)GlcNAc(b1-3)Gal(b1-4)GlcNAc(b1-3)[Gal(b1-4)GlcNAc(b1-3)Gal(b1-4)GlcNAc(b1-6)]GalNAc
Method in brief: (§1)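 Negative Z-scores can be read as non-binding. The Z-score is calculated within each array and then averaged across arrays of one protein sequence at different concentrations or buffers and across linkers. Arrays, 3228 in all, were curated from the Consortium for Functional Glycomics database and kept only where the protein sequence was available.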

[2] = molecular target: Gal(b1-4)GlcNAc(b1-3)Gal(b1-4)GlcNAc(b1-6)[Gal(b1-3)]GalNAc
Method in brief: as §1

[3] = molecular target: Gal(b1-4)GlcNAc(b1-3)Gal(b1-4)[Fuc(a1-3)]GlcNAc(b1-3)Gal(b1-4)[Fuc(a1-3)]GlcNAc
Method in brief: as §1

[4] = molecular target: Gal(b1-4)GlcNAc(b1-3)GalNAc
Method in brief: as §1

[5] = molecular target: Gal(b1-4)GlcNAc(b1-3)[Fuc(a1-3)GlcNAc(b1-6)]Gal(b1-4)Glc
Method in brief: as §1

[6] = molecular target: Gal(b1-4)GlcNAc(b1-3)[Gal(b1-4)GlcNAc(b1-6)]Gal(b1-4)GlcNAc
Method in brief: as §1

[7] = molecular target: Gal(b1-4)GlcNAc(b1-3)[GlcNAc(b1-6)]Gal(b1-4)GlcNAc
Method in brief: as §1

[8] = molecular target: Gal(b1-4)GlcNAc(b1-6)Gal(b1-4)GlcNAc
Method in brief: as §1

[9] = molecular target: Gal(b1-4)GlcNAc(b1-6)GalNAc
Method in brief: as §1

[10] = molecular target: Gal(b1-4)GlcNAc(b1-6)[Gal(b1-3)]GalNAc
Method in brief: as §1

[11] = molecular target: Gal(b1-4)GlcNAc(b1-6)[Gal(b1-4)GlcNAc(b1-3)]GalNAc
Method in brief: as §1

Gal(b1-4)GlcNAc6P = molecular target: Gal(b1-4)GlcNAc6P
Method in brief: as §1

Gal(b1-6)Gal = molecular target: Gal(b1-6)Gal
Method in brief: as §1

Gal3S(b1-3)GalNAc = molecular target: Gal3S(b1-3)GalNAc
Method in brief: as §1

Gal3S(b1-3)GlcNAc = molecular target: Gal3S(b1-3)GlcNAc
Method in brief: as §1

[12] = molecular target: Gal3S(b1-3)[Fuc(a1-4)]GlcNAc
Method in brief: as §1

Gal3S(b1-4)Glc = molecular target: Gal3S(b1-4)Glc
Method in brief: as §1

Gal3S(b1-4)Glc6S = molecular target: Gal3S(b1-4)Glc6S
Method in brief: as §1

Gal3S(b1-4)GlcNAc = molecular target: Gal3S(b1-4)GlcNAc
Method in brief: as §1

[13] = molecular target: Gal3S(b1-4)[Fuc(a1-3)]Glc6S
Method in brief: as §1

[14] = molecular target: Gal3S(b1-4)[Fuc(a1-3)]GlcNAc
Method in brief: as §1

[15] = molecular target: Gal3S(b1-4)[Fuc(a1-3)]GlcNAc6S
Method in brief: as §1

Gal3S4S(b1-4)GlcNAc = molecular target: Gal3S4S(b1-4)GlcNAc
Method in brief: as §1

Gal3S6S(b1-4)GlcNAc = molecular target: Gal3S6S(b1-4)GlcNAc
Method in brief: as §1

Gal3S6S(b1-4)GlcNAc6S = molecular target: Gal3S6S(b1-4)GlcNAc6S
Method in brief: as §1

Gal4S(b1-4)GlcNAc = molecular target: Gal4S(b1-4)GlcNAc
Method in brief: as §1

Gal4S6S(b1-4)GlcNAc = molecular target: Gal4S6S(b1-4)GlcNAc
Method in brief: as §1

Gal6P(b1-4)GlcNAc = molecular target: Gal6P(b1-4)GlcNAc
Method in brief: as §1

Gal6S(b1-3)GlcNAc = molecular target: Gal6S(b1-3)GlcNAc
Method in brief: as §1

Gal6S(b1-3)GlcNAc6S = molecular target: Gal6S(b1-3)GlcNAc6S
Method in brief: as §1

Gal6S(b1-4)Glc = molecular target: Gal6S(b1-4)Glc
Method in brief: as §1

Gal6S(b1-4)Glc6S = molecular target: Gal6S(b1-4)Glc6S
Method in brief: as §1

Gal6S(b1-4)GlcNAc = molecular target: Gal6S(b1-4)GlcNAc
Method in brief: as §1

Gal6S(b1-4)GlcNAc6S = molecular target: Gal6S(b1-4)GlcNAc6S
Method in brief: as §1

GalNAc(a1-3)Gal = molecular target: GalNAc(a1-3)Gal
Method in brief: as §1

GalNAc(a1-3)GalNAc = molecular target: GalNAc(a1-3)GalNAc
Method in brief: as §1

[16] = molecular target: GalNAc(a1-3)GalNAc(b1-3)Gal(a1-4)Gal(b1-4)Glc
Method in brief: as §1

[17] = molecular target: GalNAc(a1-3)GalNAc(b1-3)Gal(a1-4)Gal(b1-4)GlcNAc
Method in brief: as §1

GalNAc(b1-3)Gal = molecular target: GalNAc(b1-3)Gal
Method in brief: as §1

[18] = molecular target: GalNAc(b1-3)Gal(a1-4)Gal(b1-4)GlcNAc
Method in brief: as §1

[19] = molecular target: GalNAc(b1-3)Gal(a1-4)Gal(b1-4)GlcNAc(b1-3)Gal(b1-4)Glc
Method in brief: as §1

[20] = molecular target: GalNAc(b1-3)Gal(a1-6)Gal(b1-4)Glc
Method in brief: as §1

GalNAc(b1-3)GalNAc = molecular target: GalNAc(b1-3)GalNAc
Method in brief: as §1

GalNAc(b1-3)GlcNAc = molecular target: GalNAc(b1-3)GlcNAc
Method in brief: as §1

GalNAc(b1-4)Gal(b1-4)Glc = molecular target: GalNAc(b1-4)Gal(b1-4)Glc
Method in brief: as §1

B1: EPL1 (Trichoderma atroviride), A0PCX2 (protein)
chain: MQLSNLFKLALFTAAVSADTVSYDTGYDDASRSLTVVSCSDGTNGLITRYHWQTQGQIPRFPYIGGAQAVAGWNSPNCGTCWKLTYSGKTIYVLAIDHTAAGFNIGLDAMNALTNGNAVALGRVSATASQVAVSNCGL
- glycan array binding signal (z-score) [1]: -0.344
- glycan array binding signal (z-score) [2]: -0.113
- glycan array binding signal (z-score) [3]: 0.129
- glycan array binding signal (z-score) [4]: -0.325
- glycan array binding signal (z-score) [5]: 0.282
- glycan array binding signal (z-score) [6]: 0.164
- glycan array binding signal (z-score) [7]: 0.635
- glycan array binding signal (z-score) [8]: 0.31
- glycan array binding signal (z-score) [9]: -0.071
- glycan array binding signal (z-score) [10]: -0.254
- glycan array binding signal (z-score) [11]: -0.124
- glycan array binding signal (z-score) (Gal(b1-4)GlcNAc6P): -0.183
- glycan array binding signal (z-score) (Gal(b1-6)Gal): -0.376
- glycan array binding signal (z-score) (Gal3S(b1-3)GalNAc): -0.08
- glycan array binding signal (z-score) (Gal3S(b1-3)GlcNAc): 0.668
- glycan array binding signal (z-score) [12]: 0.027
- glycan array binding signal (z-score) (Gal3S(b1-4)Glc): 0.429
- glycan array binding signal (z-score) (Gal3S(b1-4)Glc6S): -0.233
- glycan array binding signal (z-score) (Gal3S(b1-4)GlcNAc): 0.311
- glycan array binding signal (z-score) [13]: 0.393
- glycan array binding signal (z-score) [14]: -0.154
- glycan array binding signal (z-score) [15]: 0.172
- glycan array binding signal (z-score) (Gal3S4S(b1-4)GlcNAc): -0.341
- glycan array binding signal (z-score) (Gal3S6S(b1-4)GlcNAc): 0.513
- glycan array binding signal (z-score) (Gal3S6S(b1-4)GlcNAc6S): 0.395
- glycan array binding signal (z-score) (Gal4S(b1-4)GlcNAc): 0.422
- glycan array binding signal (z-score) (Gal4S6S(b1-4)GlcNAc): 0.159
- glycan array binding signal (z-score) (Gal6P(b1-4)GlcNAc): -0.624
- glycan array binding signal (z-score) (Gal6S(b1-3)GlcNAc): 0.112
- glycan array binding signal (z-score) (Gal6S(b1-3)GlcNAc6S): 0.192
- glycan array binding signal (z-score) (Gal6S(b1-4)Glc): 0.047
- glycan array binding signal (z-score) (Gal6S(b1-4)Glc6S): -0.021
- glycan array binding signal (z-score) (Gal6S(b1-4)GlcNAc): 0.196
- glycan array binding signal (z-score) (Gal6S(b1-4)GlcNAc6S): 0.546
- glycan array binding signal (z-score) (GalNAc(a1-3)Gal): -0.362
- glycan array binding signal (z-score) (GalNAc(a1-3)GalNAc): -0.103
- glycan array binding signal (z-score) [16]: -0.011
- glycan array binding signal (z-score) [17]: -0.162
- glycan array binding signal (z-score) (GalNAc(b1-3)Gal): 0.005
- glycan array binding signal (z-score) [18]: 0.183
- glycan array binding signal (z-score) [19]: -0.272
- glycan array binding signal (z-score) [20]: -0.107
- glycan array binding signal (z-score) (GalNAc(b1-3)GalNAc): -0.275
- glycan array binding signal (z-score) (GalNAc(b1-3)GlcNAc): -0.259
- glycan array binding signal (z-score) (GalNAc(b1-4)Gal(b1-4)Glc): 0.124
